# In PubChem BioAssay AID686978 (National Center for Advancing Translational Sciences (NCATS), 2013):
# In all, about 420,000 compounds went through this assay and about 64,000 (15%) were called active. The shares of active, inactive and inconclusive entries below differ from those in the screen. The call rests on the fitted dose curve; in most records, active means well fitted inhibition curve with a large enough effect; inconclusive means small, poorly fitted or top-dose-only effect; inactive means flat fitted curve, though single readings scatter. No potency is given beside an inconclusive call; the fits are too rough.
# Assay: qHTS for Inhibitors of human tyrosyl-DNA phosphodiesterase 1 (TDP1): qHTS in cells in absence of CPT; further: nearly all actives have a fitted effect of over 55% in size
# Conditions: DT40 Tdp1-/- hTDP1 cells, no CPT, ATP luminescence, 48 h; activity change, negative = growth inhibition: at 46.2 µM (top of the series) unless noted
# Summary of the method: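 Growth of hTDP1-complemented DT40 Tdp1-knockout cells is measured by ATP luminescence after at least 48 hr compound exposure at 37 °C, with DMSO substituting for the 20 nM CPT used in the parallel screen.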
# On the % scale 0 is the no-effect control and ±100 the full control effect; potency means the concentration at half of the fitted maximal effect; tags describe the fitted curve by direction and shape.
Compound,Potency,"activity change, negative = growth inhibition"
CCc1ccc(/C=C2/Sc3ccccc3N(CC(=O)NCC3CCCO3)C2=O)cc1 (stereo not drawn),"inconclusive [inhibitor, single point]",–
NC(=NCc1ccccc1)C(N=Nc1ccccc1)C(=O)NCc1ccccc1 (stereo not drawn),"inconclusive [inhibitor, single point]",–
CC(C)(C)C1CCC(C(=O)Nc2ccc(N3CCOCC3)cc2N2CCOCC2)CC1 (stereo not drawn),"inconclusive [inhibitor, single point]",–
O=C(Nc1ccc2c(c1)OCCO2)C(C1CC1)N1CCN(C/C=C/c2ccccc2)CC1 (stereo not drawn),"inconclusive [inhibitor, single point]",–
Cc1ccccc1Cn1c(CN2CCCC(C)C2)nc2c1c(=O)n(C)c(=O)n2C (stereo not drawn),active: 5.8 µM,–
COc1ccc(N(C(=O)c2ccco2)C(C(=O)NC2CCCC2)c2ccc(N3CCOCC3)cc2)c(OC)c1 (stereo not drawn),"inconclusive [inhibitor, partial curve, poor fit]",–
Cn1c(=O)cc(OCC(=O)NCCCN2CCN(c3ccccc3F)CC2)c2ccccc21,–,inconclusive: -32% [inhibitor]
CCC(c1nnnn1-c1c(C)cccc1C)N1CCCN(Cc2ccc(F)cc2)CC1 (stereo not drawn),active: 16.4 µM,–
COc1ccc(OC)c(/C=C/c2nc3ccccc3nc2C)c1,"inconclusive [inhibitor, single point]",–
CC1CSC(N(C(=O)c2ccc(S(C)(=O)=O)cc2)c2ccc(Cl)cc2)=N1 (stereo not drawn),"inconclusive [inhibitor, single point]",–
COC(=O)C1C(O)=C(C=Nc2cccc3ccccc23)C(=O)CC1(C)C (stereo not drawn),–,inconclusive: -31.7% [inhibitor]
CCc1cccc(C)c1NC(=O)c1cccc(C(=O)Nc2c(C)cccc2CC)c1,"inconclusive [inhibitor, single point]",–
O=C(Nc1ccc(F)cc1)c1sc(Cl)nc1-c1ccccc1,"inconclusive [inhibitor, single point]",–
Cc1ccc2nc(C)cc(Nc3ccc([N+](=O)[O-])cc3)c2c1,active: 0.92 µM,–
CCOc1ccc(C(=O)c2cn(CC(=O)Nc3ccc(Cl)cc3)c3cc4c(cc3c2=O)OCCO4)cc1,active: 6.51 µM,–
COc1cc(Nc2nnc(C)s2)c(Cl)cc1Cl,–,inactive: -28.9%
Cc1ccc(C)c(N2CCN(C(=O)c3noc4c3CCCCC4)CC2)c1,"inconclusive [inhibitor, single point]",–
CCCC(=O)N1CCN(c2nc3ccc(Cl)cc3s2)CC1,"inconclusive [inhibitor, single point]",–
